The supplement of paper PMC8728848
This is one part of the list.

What was measured:
Experiment in all cases: glycan array binding signal (z-score within array); higher = stronger binding
Settings in all cases: glycan notation: IUPAC condensed, linker removed
[1] = target: Gal(b1-4)GlcNAc(b1-3)Gal(b1-4)GlcNAc(b1-3)Gal(b1-4)GlcNAc(b1-3)Gal(b1-4)GlcNAc(b1-2)Man(a1-3)[Gal(b1-4)GlcNAc(b1-3)Gal(b1-4)GlcNAc(b1-3)Gal(b1-4)GlcNAc(b1-3)Gal(b1-4)GlcNAc(b1-2)Man(a1-6)]Man(b1-4)GlcNAc(b1-4)[Fuc(a1-6)]GlcNAc
Summary of the method: (§1)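 Columns mapping to the same glycan were averaged after glycan names were converted to IUPAC-condensed notation. The data come from 3228 arrays in the Consortium for Functional Glycomics database, limited to those with an available protein sequence. Binding is reported as a within-array Z-score averaged across arrays of one protein sequence and across linkers.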

[2] = target: Gal(b1-4)GlcNAc(b1-3)Gal(b1-4)GlcNAc(b1-3)Gal(b1-4)GlcNAc(b1-3)Gal(b1-4)GlcNAc(b1-2)[Gal(b1-4)GlcNAc(b1-3)Gal(b1-4)GlcNAc(b1-3)Gal(b1-4)GlcNAc(b1-3)Gal(b1-4)GlcNAc(b1-6)]Man(a1-6)[Gal(b1-4)GlcNAc(b1-3)Gal(b1-4)GlcNAc(b1-3)Gal(b1-4)GlcNAc(b1-3)Gal(b1-4)GlcNAc(b1-2)Man(a1-3)]Man(b1-4)GlcNAc(b1-4)[Fuc(a1-6)]GlcNAc
Summary of the method: as §1

[3] = target: Gal(b1-4)GlcNAc(b1-3)Gal(b1-4)GlcNAc(b1-3)Gal(b1-4)GlcNAc(b1-3)Gal(b1-4)GlcNAc(b1-3)Gal(b1-4)GlcNAc(b1-2)Man(a1-3)[Gal(b1-4)GlcNAc(b1-3)Gal(b1-4)GlcNAc(b1-3)Gal(b1-4)GlcNAc(b1-3)Gal(b1-4)GlcNAc(b1-3)Gal(b1-4)GlcNAc(b1-2)Man(a1-6)]Man(b1-4)GlcNAc(b1-4)GlcNAc
Summary of the method: as §1

[4] = target: Gal(b1-4)GlcNAc(b1-3)Gal(b1-4)GlcNAc(b1-3)Gal(b1-4)GlcNAc(b1-3)Gal(b1-4)GlcNAc(b1-3)Gal(b1-4)GlcNAc(b1-2)Man(a1-3)[Gal(b1-4)GlcNAc(b1-3)Gal(b1-4)GlcNAc(b1-3)Gal(b1-4)GlcNAc(b1-3)Gal(b1-4)GlcNAc(b1-3)Gal(b1-4)GlcNAc(b1-2)Man(a1-6)]Man(b1-4)GlcNAc(b1-4)[Fuc(a1-6)]GlcNAc
Summary of the method: as §1

[5] = target: Gal(b1-4)GlcNAc(b1-3)Gal(b1-4)GlcNAc(b1-3)Gal(b1-4)GlcNAc(b1-3)Gal(b1-4)GlcNAc(b1-3)Gal(b1-4)GlcNAc(b1-2)[Gal(b1-4)GlcNAc(b1-3)Gal(b1-4)GlcNAc(b1-3)Gal(b1-4)GlcNAc(b1-3)Gal(b1-4)GlcNAc(b1-3)Gal(b1-4)GlcNAc(b1-6)]Man(a1-6)[Gal(b1-4)GlcNAc(b1-3)Gal(b1-4)GlcNAc(b1-3)Gal(b1-4)GlcNAc(b1-3)Gal(b1-4)GlcNAc(b1-3)Gal(b1-4)GlcNAc(b1-2)Man(a1-3)]Man(b1-4)GlcNAc(b1-4)[Fuc(a1-6)]GlcNAc
Summary of the method: as §1

[6] = target: Gal(b1-4)GlcNAc(b1-3)Gal(b1-4)GlcNAc(b1-3)Gal(b1-4)GlcNAc(b1-3)Gal(b1-4)GlcNAc(b1-3)Gal(b1-4)GlcNAc(b1-3)Gal(b1-4)GlcNAc(b1-2)Man(a1-3)[Gal(b1-4)GlcNAc(b1-3)Gal(b1-4)GlcNAc(b1-3)Gal(b1-4)GlcNAc(b1-3)Gal(b1-4)GlcNAc(b1-3)Gal(b1-4)GlcNAc(b1-3)Gal(b1-4)GlcNAc(b1-2)Man(a1-6)]Man(b1-4)GlcNAc(b1-4)GlcNAc
Summary of the method: as §1

[7] = target: Gal(b1-4)GlcNAc(b1-3)Gal(b1-4)GlcNAc(b1-3)GalNAc
Summary of the method: as §1

[8] = target: Gal(b1-4)GlcNAc(b1-3)Gal(b1-4)GlcNAc(b1-3)[Gal(b1-4)GlcNAc(b1-3)Gal(b1-4)GlcNAc(b1-6)]GalNAc
Summary of the method: as §1

[9] = target: Gal(b1-4)GlcNAc(b1-3)Gal(b1-4)GlcNAc(b1-6)[Gal(b1-3)]GalNAc
Summary of the method: as §1

[10] = target: Gal(b1-4)GlcNAc(b1-3)Gal(b1-4)[Fuc(a1-3)]GlcNAc(b1-3)Gal(b1-4)[Fuc(a1-3)]GlcNAc
Summary of the method: as §1

[11] = target: Gal(b1-4)GlcNAc(b1-3)GalNAc
Summary of the method: as §1

[12] = target: Gal(b1-4)GlcNAc(b1-3)[Fuc(a1-3)GlcNAc(b1-6)]Gal(b1-4)Glc
Summary of the method: as §1

[13] = target: Gal(b1-4)GlcNAc(b1-3)[Gal(b1-4)GlcNAc(b1-6)]Gal(b1-4)GlcNAc
Summary of the method: as §1

[14] = target: Gal(b1-4)GlcNAc(b1-3)[GlcNAc(b1-6)]Gal(b1-4)GlcNAc
Summary of the method: as §1

[15] = target: Gal(b1-4)GlcNAc(b1-6)Gal(b1-4)GlcNAc
Summary of the method: as §1

[16] = target: Gal(b1-4)GlcNAc(b1-6)GalNAc
Summary of the method: as §1

[17] = target: Gal(b1-4)GlcNAc(b1-6)[Gal(b1-3)]GalNAc
Summary of the method: as §1

[18] = target: Gal(b1-4)GlcNAc(b1-6)[Gal(b1-4)GlcNAc(b1-3)]GalNAc
Summary of the method: as §1

Gal(b1-4)GlcNAc6P = target: Gal(b1-4)GlcNAc6P
Summary of the method: as §1

Gal(b1-6)Gal = target: Gal(b1-6)Gal
Summary of the method: as §1

Gal3S(b1-3)GalNAc = target: Gal3S(b1-3)GalNAc
Summary of the method: as §1

Gal3S(b1-3)GlcNAc = target: Gal3S(b1-3)GlcNAc
Summary of the method: as §1

[19] = target: Gal3S(b1-3)[Fuc(a1-4)]GlcNAc
Summary of the method: as §1

Gal3S(b1-4)Glc = target: Gal3S(b1-4)Glc
Summary of the method: as §1

Gal3S(b1-4)Glc6S = target: Gal3S(b1-4)Glc6S
Summary of the method: as §1

Gal3S(b1-4)GlcNAc = target: Gal3S(b1-4)GlcNAc
Summary of the method: as §1

[20] = target: Gal3S(b1-4)[Fuc(a1-3)]Glc6S
Summary of the method: as §1

[21] = target: Gal3S(b1-4)[Fuc(a1-3)]GlcNAc
Summary of the method: as §1

[22] = target: Gal3S(b1-4)[Fuc(a1-3)]GlcNAc6S
Summary of the method: as §1

Gal3S4S(b1-4)GlcNAc = target: Gal3S4S(b1-4)GlcNAc
Summary of the method: as §1

Gal3S6S(b1-4)GlcNAc = target: Gal3S6S(b1-4)GlcNAc
Summary of the method: as §1

Gal3S6S(b1-4)GlcNAc6S = target: Gal3S6S(b1-4)GlcNAc6S
Summary of the method: as §1

Gal4S(b1-4)GlcNAc = target: Gal4S(b1-4)GlcNAc
Summary of the method: as §1

Gal4S6S(b1-4)GlcNAc = target: Gal4S6S(b1-4)GlcNAc
Summary of the method: as §1

Gal6P(b1-4)GlcNAc = target: Gal6P(b1-4)GlcNAc
Summary of the method: as §1

Gal6S(b1-3)GlcNAc = target: Gal6S(b1-3)GlcNAc
Summary of the method: as §1

Gal6S(b1-3)GlcNAc6S = target: Gal6S(b1-3)GlcNAc6S
Summary of the method: as §1

Gal6S(b1-4)Glc = target: Gal6S(b1-4)Glc
Summary of the method: as §1

B1: PX14367B-bvu-516-23-516 (Bacteroides vulgatus) (protein)
chain: LDTIPTTYVDAGSVFGKTGDAEKVLNGGWNYLMETFNSYANPGYGAMLRANDAMGSDVVLNSKYGFRTHNEFSAIYGKGGTNTLSWLLAYRVINDCNGVLDNIDAAEGTQADRNRIKGQALALRGFLYLHLASCYSFAIDKDPDAVCAPIYTQSTDETIAAEGKPASSVSEVYAQSINDLEEALELIPETYVRDAKHKIDNEVVLGILSRACLYARQWEKAKTYSDKLLAKDNYLMTESEYKAGFNSVDNKEWIWGHAQTNDQSNASYQFHYLDTTTKGSYYYSFNVDPYFRDLFEDGDYRKEMLFWATDPGADVESAAYVWMRNSKFRFRDIENQLGDIVLMRVAEIYLINAEAKAHLNDPDAINKLNDLKTARGAKTIHTNLSQQDLLETIWLERRKELWGEGFSLIDIIRNQQTVVRNAYPEGPIDYIYTDENGQTHTLKKKTQGHRFFNFPDKSAFCPNSKYYLYRITDSEELANKNLYKDHPKLSIYTK
glycan array binding signal (z-score) [1]: 0.567
glycan array binding signal (z-score) [2]: 0.603
glycan array binding signal (z-score) [3]: 0.433
glycan array binding signal (z-score) [4]: 0.122
glycan array binding signal (z-score) [5]: 3.48
glycan array binding signal (z-score) [6]: 7.87
glycan array binding signal (z-score) [7]: -0.231
glycan array binding signal (z-score) [8]: -0.24
glycan array binding signal (z-score) [9]: -0.301
glycan array binding signal (z-score) [10]: -0.179
glycan array binding signal (z-score) [11]: -0.331
glycan array binding signal (z-score) [12]: -0.274
glycan array binding signal (z-score) [13]: 0.179
glycan array binding signal (z-score) [14]: -0.364
glycan array binding signal (z-score) [15]: -0.274
glycan array binding signal (z-score) [16]: -0.125
glycan array binding signal (z-score) [17]: -0.273
glycan array binding signal (z-score) [18]: -0.204
glycan array binding signal (z-score) (Gal(b1-4)GlcNAc6P): -0.365
glycan array binding signal (z-score) (Gal(b1-6)Gal): -0.211
glycan array binding signal (z-score) (Gal3S(b1-3)GalNAc): -0.332
glycan array binding signal (z-score) (Gal3S(b1-3)GlcNAc): -0.279
glycan array binding signal (z-score) [19]: -0.317
glycan array binding signal (z-score) (Gal3S(b1-4)Glc): -0.159
glycan array binding signal (z-score) (Gal3S(b1-4)Glc6S): -0.22
glycan array binding signal (z-score) (Gal3S(b1-4)GlcNAc): -0.197
glycan array binding signal (z-score) [20]: 2.87
glycan array binding signal (z-score) [21]: -0.309
glycan array binding signal (z-score) [22]: -0.285
glycan array binding signal (z-score) (Gal3S4S(b1-4)GlcNAc): -0.108
glycan array binding signal (z-score) (Gal3S6S(b1-4)GlcNAc): -0.262
glycan array binding signal (z-score) (Gal3S6S(b1-4)GlcNAc6S): -0.211
glycan array binding signal (z-score) (Gal4S(b1-4)GlcNAc): -0.325
glycan array binding signal (z-score) (Gal4S6S(b1-4)GlcNAc): -0.294
glycan array binding signal (z-score) (Gal6P(b1-4)GlcNAc): -0.339
glycan array binding signal (z-score) (Gal6S(b1-3)GlcNAc): 3
glycan array binding signal (z-score) (Gal6S(b1-3)GlcNAc6S): -0.297
glycan array binding signal (z-score) (Gal6S(b1-4)Glc): -0.219
